# Reference: PubChem BioAssay AID1671193 (National Center for Advancing Translational Sciences (NCATS), 2021)
# The campaign covered roughly 150,000 compounds. About 180 (0.12%) were called active. The shares of active, inactive and inconclusive entries below differ from those in the screen. The call rests on the fitted dose curve; in most records, active means well fitted cell-killing curve with a large enough effect; inconclusive means small, poorly fitted or top-dose-only effect, or effect the other way; inactive means flat fitted curve, though single readings scatter. Potencies of inconclusive entries are doubtful fits and often do not repeat.
# Test: GF-AFC viability counterscreen for inhibitors of alpha-synuclein gene (SNCA) expression; further: nearly all actives have a fitted effect of over 30% in size;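 on activity change, negative = cytotoxicity: 0% = DMSO-treated cells and -100% = medium-only wells without cells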
# Details: HEK-293-SNCA-luc viability, GF-AFC fluorescence, 24 h; activity change, negative = cytotoxicity: at 57.1 µM (top of the series) unless noted
# Summary of the method: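 HEK-293-SNCA-luc cells (1500/well) plated 24 h, then exposed 24 h to a dilution series; GF-AFC added 30 min at 37C, fluorescence 405/540 nm; normalised to medium-only and DMSO wells, Hill fit.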
# Potency means the concentration at half of the fitted maximal effect; tags describe the fitted curve by direction and shape.
Compound,"activity change, negative = cytotoxicity",Potency
Cc1nnc(-c2cc(-c3cnn(C)c3)ccn2)n1C1CCCCC1,inactive: -8.13% [at 87.6 µM],–
CCC1(N2CCN(S(=O)(=O)c3ccccc3Cl)CC2)CCN(S(C)(=O)=O)C1 (stereo unspecified),inactive: 12.2%,–
COc1ccc(-c2noc([C@@H]3Cc4nc[nH]c4CN3C(=O)Nc3ccc(C)cc3)n2)cc1,–,"inconclusive: 1.41 µM [cytotoxic, full curve, poor fit]"
O=C(NCCC1=CCCCC1)C1(CCO)CCN(c2ncccn2)C1 (stereo unspecified),–,"inconclusive: 39.8 µM [cytotoxic, single point]"
CCN(CC)CC#CCOC(=O)C(O)(c1ccccc1)C1CCCCC1 (stereo unspecified),–,"inconclusive: 0.857 µM [cytotoxic, full curve, poor fit]"
Cc1cccc(-n2ncc(C(=O)N3CCN(C4CCCCC4)CC3)c2C2CCN(C(=O)OC(C)(C)C)CC2)c1,–,"inconclusive: 35.5 µM [cytotoxic, single point]"
CCc1nnc(NC(=O)c2nc(S(=O)(=O)Cc3ccc(C)cc3)ncc2Cl)s1,–,active: 28.2 µM
O=C(c1ccc(C2CCCNC2)cc1)N(Cc1ccccn1)C1CCCCC1 (stereo unspecified),–,"inconclusive: 1.58 µM [cytotoxic, full curve, poor fit]"
COc1ccc(-c2[nH]c(-c3cccc(OC)c3)nc2SCC(=O)Nc2ccc3c(c2)OCO3)cc1,–,"inconclusive: 28.2 µM [cytotoxic, partial curve, poor fit]"
Cc1ccc(NC(=O)N2CCc3c(c4cc(F)ccc4n3C)C2)cc1,–,"inconclusive: 7.08 µM [cytotoxic, single point]"
CCCOc1ccc(C(=O)N2C[C@H](c3cccc(OC)c3)[C@@H](N)C2)cc1Cl,inactive: -5.96%,–
Cc1cccc(C)c1Nc1c(-c2ccccc2F)nc2cccc(C)n12,–,"inconclusive: 39.8 µM [cytotoxic, single point]"
COc1ccc(OCC(=O)Nc2nnc(S(=O)(=O)N3CCc4ccccc43)s2)cc1,inactive: 3.08%,–
COc1cccc(C(=O)NC2CCCN(Cc3ccc(-c4cc(C)cc(C)c4)cc3)C2)c1 (stereo unspecified),inactive: 6.84% [at 12.5 µM],–
COCCNC(=O)c1ccc2c(c1)C1(CCN(CC3CC3)C1)CN2Cc1ccccc1 (stereo unspecified),inactive: -2.73% [at 87.6 µM],–
COc1ccc2cc(C3CN(c4ncnc(C)c4C)CCO3)ccc2c1 (stereo unspecified),inactive: -12%,–
O=c1c(-c2cccs2)nc2cnc(Oc3ccccc3)nc2n1C1CC1,–,"inconclusive: 39.8 µM [rising, single point]"
COc1ccc(C2NC(=O)N(C)C3=C2C(=O)N(c2cccc(Cl)c2)C3)cc1 (stereo unspecified),–,"inconclusive: 11.2 µM [cytotoxic, partial curve, poor fit]"
O=C(CO)NC1CC(=O)N(Cc2ccccc2C(F)(F)F)C1 (stereo unspecified),inactive: 0.319%,–
Cc1csc(NC(=O)c2nc3c(o2)CCN(Cc2cccc(F)c2)CC3)n1,inactive: -3.54% [at 87.6 µM],–
COc1ccc(-c2cc(C[C@H]3CNCC[C@H]3CC(=O)NC(C)C)no2)cc1,inactive: 2.89% [at 87.6 µM],–
COc1cccc(Cn2c(=O)c(-c3ccc(F)cc3)nc3cnc(N(C)C)nc32)c1,–,"inconclusive: 5.62 µM [rising, single point]"

Compound,"activity change, negative = cytotoxicity",Potency
CCOC(=O)c1ccc(N2C(=O)c3[nH]nc(-c4ccc(C)cc4)c3C2c2cccc(F)c2)cc1 (stereo unspecified),–,"inconclusive: 2.82 µM [cytotoxic, full curve, poor fit]"
CCc1ccc(C(=O)c2cn(CC(=O)Nc3cccc(OC)c3)c3ccc(OC)cc3c2=O)cc1,–,"inconclusive: 14.1 µM [cytotoxic, partial curve, poor fit]"
O=C1NC(=NC2CCCC2)C2(CCN(CC3CCCCC3)C2)N1c1cc(F)cc(F)c1 (stereo unspecified),–,"inconclusive: 31.6 µM [cytotoxic, partial curve, poor fit]"
CSc1ccc(-c2cccc(C(=O)NCCNC(=O)Cc3cccc(Cl)c3)c2)cc1,inactive: 7.36%,–
CCCn1c(C)cnc1CCNC(=O)C1(c2ccc(OC)cc2)CC1,–,"inconclusive: 3.16 µM [cytotoxic, partial curve, poor fit]"
COc1ccc(C(=O)N2CCC[C@@]3(CCN(c4ccccc4)C3)C2)cc1,–,"inconclusive: 39.8 µM [cytotoxic, single point]"
COc1cccc(S(=O)(=O)N2[C@@H]3CC[C@H]2CC(NC(=O)c2ccc(F)cc2)C3)c1 (stereo partly specified),–,"inconclusive: 39.8 µM [cytotoxic, single point]"
C[C@@H](NC(=O)N1CCOC[C@H]1c1ncc(-c2ccc(Cl)cc2)[nH]1)c1ccccc1,–,"inconclusive: 39.8 µM [cytotoxic, partial curve, poor fit]"
CCCN1CCCC2(Cc3ccccc3CN(C(C)=O)C2)C1 (stereo unspecified),inactive: -5.01% [at 87.6 µM],–
COc1ncc(-c2cc(C(=O)NCc3cccnc3)c3c(c2)N(C)CCO3)cn1,inactive: 4.8% [at 87.6 µM],–
Cc1ccc(CN(C(=O)c2ccco2)c2ccc(CC(=O)N(C)Cc3ccccc3)cc2)cc1,–,"inconclusive: 5.01 µM [cytotoxic, single point]"
COc1ccc(NC(=O)Nc2cccn3nc(C)nc23)cc1,inactive: -7.88%,–
COc1cccc(Nc2ccc3c(n2)C(C)(C(=O)NCc2cccs2)CN(C)C3)c1 (stereo unspecified),inactive: -20.4% [at 87.6 µM],–
Cc1ccccc1C(=O)N1CCN(c2cc(-c3cccs3)[nH]n2)CC1,inactive: 6.34%,–
COc1ccccc1Nc1c2c(nc3ccc(NC(=O)/C=C/c4cccc(OC)c4OC)cc13)CCCC2,–,"inconclusive: 10 µM [cytotoxic, partial curve, poor fit]"
COCC1CN(Cc2cccc(C#N)c2)CC12CCNCC2 (stereo unspecified),–,"inconclusive: 31.6 µM [cytotoxic, single point]"
COc1cccc(NC(=O)CCC2CCN(S(=O)(=O)c3ccccc3)CC2)c1,inactive: 3.52%,–
O=C(NCC1CC1)c1nc2c(o1)CCN(Cc1ccc(F)cc1F)CC2,inactive: -0.363% [at 87.6 µM],–
COc1ccccc1C(=O)NC1CCN(c2cc(C(F)(F)F)ncn2)CC1,–,"inconclusive: 22.4 µM [cytotoxic, partial curve, poor fit]"
COCC1CN(C(C)=O)CC12CCN(S(=O)(=O)c1cn(C)cn1)CC2 (stereo unspecified),–,"inconclusive: 0.708 µM [rising, full curve, poor fit]"
COc1cccc(-c2cccc(C(=O)N3CCCC3C(=O)NCc3ccc(Cl)cc3)c2)c1 (stereo unspecified),–,"inconclusive: 28.2 µM [cytotoxic, single point]"
COc1ccc(-c2cn3cc(C(=O)N(C)C)nc3s2)cc1,inactive: -12.2% [at 87.6 µM],–

Compound,"activity change, negative = cytotoxicity",Potency
OC[C@H]1O[C@@H](OCCc2ccccc2)[C@H](O[C@@H]2OC[C@](O)(CO)[C@H]2O)[C@@H](O)[C@@H]1O,–,"inconclusive: 6.53 µM [cytotoxic, partial curve, poor fit]"
O=C(CC1N=C2c3ccccc3N=C(SCC(=O)Nc3cccc(C(F)(F)F)c3)N2C1=O)NCc1cccs1 (stereo unspecified),–,"inconclusive: 39.8 µM [cytotoxic, single point]"
Cc1cc(C(=O)N2CCCC(c3nc(C4CCOCC4)no3)C2)n(C)n1 (stereo unspecified),inactive: -0.61%,–
Cc1noc(C)c1[S+](=O)([O-])N1CCn2ncc(C(=O)N3CCOCC3)c2C1,–,"inconclusive: 3.98 µM [cytotoxic, single point]"
C1=C(c2nc(-c3cccc4[nH]ncc34)cc3c2ccn3Cc2cccnc2)CCOC1,–,"inconclusive: 12.6 µM [cytotoxic, partial curve, poor fit]"
COc1ccc(NC(=O)CSc2ncc(-c3ccc(Cl)cc3)[nH]2)cc1OC,–,"inconclusive: 5.01 µM [rising, partial curve, poor fit]"
CCC(=O)N1CCN(c2nc3c(s2)CC(C(=O)Nc2cccc(C)c2C)CC3)CC1 (stereo unspecified),inactive: -8.05%,–
Cn1c(=O)c2c(n3c4ccccc4nc13)NC(=O)CC2c1ccccc1F (stereo unspecified),inactive: 3.82%,–
CS(=O)(=O)NCCc1ccc(CC2CCN(C(=O)CC3CCCC3)CC2)cc1,inactive: -3.77%,–
COc1ccc(-c2nc3cnc(N(C)C)nc3n(C)c2=O)cc1,–,"inconclusive: 8.91 µM [rising, full curve, poor fit]"
CN(Cc1ccc(C(=O)O)cc1)c1ccc(OCc2c(-c3c(Cl)cccc3Cl)noc2C2CC2)nc1C(F)(F)F,–,"inconclusive: 4.74 µM [rising, single point]"
COC(=O)c1c(NC(=O)c2ccc(S(=O)(=O)N3CCCC(C)C3)cc2)sc2c1CCN(C(C)C)C2 (stereo unspecified),–,"inconclusive: 22.4 µM [rising, single point]"
Cc1ccc(Nc2ccnc(N3CCC(NC(=O)c4ccc(C(F)(F)F)cc4)CC3)n2)cc1,–,"inconclusive: 25.1 µM [cytotoxic, single point]"
CC(C)(C)c1ccc(C(=O)N2CCN(C(=O)c3nnn4c3COC(c3ccccc3)C4)CC2)cc1 (stereo unspecified),inactive: -7.25%,–
COc1ccccc1Nc1cc(C)nc2nc(-c3ccccc3)nn12,–,"inconclusive: 39.8 µM [cytotoxic, single point]"
CC(C)CN1C(=O)CCc2cc(NC(=O)c3ccc(N(C)C)cc3)ccc21,–,"inconclusive: 25.1 µM [cytotoxic, partial curve, poor fit]"
COc1ccc(Nc2cc(C(=O)NCCc3ccccc3)c3ccccc3n2)cc1OC,inactive: 20.5%,–
Cc1ccc(CN2CC(Oc3ccccc3C(=O)N3CCOCC3)C2)s1,–,"inconclusive: 39.8 µM [cytotoxic, single point]"
CN1c2cc(C(=O)NCCCc3ccccc3)ccc2C(=O)N2CCCC21 (stereo unspecified),inactive: -8.27% [at 12.5 µM],–
COc1ccc(-c2cc(N3CCC(NC(=O)c4ccc(Cl)cc4)C3)n[nH]2)cc1 (stereo unspecified),inactive: -7.94%,–
CCOc1ccc(OCC)c(NC(=O)C2CCCN(S(=O)(=O)c3ccc4c(c3)oc(=O)n4C)C2)c1 (stereo unspecified),–,"inconclusive: 10 µM [cytotoxic, partial curve]"
Nc1ncn([C@@H]2O[C@H](CO)[C@@H](O)[C@@H]2O)c(=O)n1,–,"inconclusive: 17.1 µM [cytotoxic, partial curve, poor fit]"
